Laboratory results taken from PubChem BioAssay (NCATS).
Values joined by “and” are separate entries in the source; they are usually repeats but may differ in a detail not shown here. Equal entries are not always repeated. Inconclusive results, whose numbers are uncertain, are shown with a selection of clear calls. Where the call is inconclusive, the potency comes from a doubtful curve fit. Where a structure was tested more than once in an assay, its records may differ in their call. Active and inactive are the calls of the source. Calls follow the shape of the dose curve; as a rule, active = well fitted activation curve with a large enough effect; inconclusive = small, poorly fitted or top-dose-only effect; inactive = no such curve, though single readings can be large or run the other way.

target: Cellular tumor antigen p53 (Homo sapiens) (UniProt P04637); experiment: Primary qHTS for small molecule compounds that upregulate eGFP-tagged delta133p53alpha (in N-terminal) cells. (AID 2060322); settings: NCI-H358 eGFP-delta133p53alpha fluorescence, 24 h; activation: stronger effect = higher value; also: nearly all actives have a fitted effect of over 75% in size;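 as to activation: series mostly up to about 56 µM; 0% = DMSO vehicle and 100% = reference activator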
UniProt P04637, sequence (P04637 whole entry, looked up): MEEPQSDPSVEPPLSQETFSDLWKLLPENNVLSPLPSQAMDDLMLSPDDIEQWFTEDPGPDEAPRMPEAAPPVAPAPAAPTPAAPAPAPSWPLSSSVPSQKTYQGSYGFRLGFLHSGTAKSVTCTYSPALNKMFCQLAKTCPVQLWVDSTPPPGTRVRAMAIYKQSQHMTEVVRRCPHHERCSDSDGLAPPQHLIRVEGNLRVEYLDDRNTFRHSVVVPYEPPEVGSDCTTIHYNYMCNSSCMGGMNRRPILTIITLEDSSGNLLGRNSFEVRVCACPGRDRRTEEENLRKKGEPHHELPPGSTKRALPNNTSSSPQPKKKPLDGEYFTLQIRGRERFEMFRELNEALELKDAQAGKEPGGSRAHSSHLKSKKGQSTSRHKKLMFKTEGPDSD
Method in brief: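 NCI-H358 cells pre-induced 24 h with 10 ng/ml doxycycline to express N-terminal eGFP-delta133p53alpha, then dosed 24 h at 37C without doxycycline; fixed, Hoechst-stained, GFP intensity by laser scanning cytometry, normalized to DMSO (0%) and 57.5 uM 5-azacytidine (100%).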
Potency is read from the fitted curve at half-maximal effect; tags tell the direction and shape of the fitted curve.

| SMILES | Potency | activation |
| --- | --- | --- |
| C#CCO[C@H]1CN2CCC1CC2 | inconclusive: 3.38 µM [activator, single point] | – |
| CC(C)C1(OO)C=C2C(=O)CC3C(C)(C(=O)O)CCCC3(C)C2CC1 (centres undefined) | – | inactive: 11.5% |
| Cc1c2ccncc2c(C)c2c1[nH]c1ccccc12 | inconclusive: 37.9 µM [activator, single point] | – |
| O=C(CBr)Nc1ccc(Cl)cc1C(=O)c1ccccc1F | inconclusive: 38.9 µM [activator, single point] | – |
| CNC(C)(C)Cc1ccccc1 | – | inactive: -3.35% |
| CC(C)(C)CC(C)(C)c1ccc(O)cc1 | active: 28.2 µM and active: 30.9 µM | – |
| O=S(=O)(c1ccc(Cl)cc1)c1ccc(Cl)cc1 | inconclusive: 9.07 µM [activator, partial curve, poor fit] | – |
| COC1CC(OC2CCC3(C=O)C(CCC4C3CCC3(C)C(C5=CC(=O)OC5)CCC43O)C2)OC(C)C1OC1OC(CO)C(O)C(O)C1O (centres undefined) | inconclusive: 1.26 µM [activator, partial curve] | – |
| Cc1[nH]nc2ccc(-c3cncc(OC[C@@H](N)Cc4c[nH]c5ccccc45)c3)cc12 | active: 8.63 µM | – |
| CC[C@H]1C2CC3[C@@H]4N(C)c5ccccc5[C@]45C[C@@H]([C@H]2[C@H]5O)N3[C@H]1O | inconclusive: 23.4 µM [activator, single point] | – |
| CC[n+]1c(-c2ccccc2)c2cc(N)ccc2c2ccc(N)cc21 | active: 19.5 µM | – |
| C[C@]12CC[C@H]3[C@@H](CCC4=CC(=O)CC[C@@H]43)[C@@H]1CC[C@@H]2OC(=O)CCc1ccco1 | inconclusive: 38.9 µM [activator, single point] | – |
| C[C@@H](CN1CCC(n2c(=O)[nH]c3cc(Br)ccc32)CC1)NC(=O)[C@@H]1C[C@H]1c1ccccc1 | inconclusive: 37.9 µM [activator, single point] | – |
| CN1CCc2cc(Cl)c(O)cc2[C@H]2c3ccccc3CC[C@@H]21 | inconclusive: 3.47 µM [activator, partial curve, poor fit] | – |
| CN1[C@@H]2CC[C@H]1CC(OC(=O)c1cc(Cl)cc(Cl)c1)C2 (some centres undefined) | inconclusive: 12.3 µM [activator, partial curve, poor fit] | – |
| Nc1ccccc1C(=O)O | inconclusive: 38.9 µM [activator, single point] | – |
| COC1CC(O[C@H]2CC[C@@]3(C)C(CCC4C3CC[C@]3(C)[C@@H](C5=CC(=O)OC5)CC[C@]43O)C2)OC(C)C1O (some centres undefined) | inconclusive: 0.465 µM [activator, full curve, poor fit] | – |
| C[C@@H]1CCC/C=C/[C@H]2C[C@@H](O)C[C@@H]2[C@@H](O)/C=C/C(=O)O1 | inconclusive: 3.79 µM [activator, full curve] | – |
| O=c1[nH]c2ccccc2n1C1CCN(CCCC(c2ccc(F)cc2)c2ccc(F)cc2)CC1 | inconclusive: 24.6 µM [activator, single point] | – |
| CCN(CC)CCOC(=O)C(O)(c1ccccc1)c1ccccc1 | – | inactive: 20.9% |

| SMILES | Potency | activation |
| --- | --- | --- |
| C[C@@H](CN1CCC2(CC1)C(=O)NCN2c1cccc(F)c1)NC(=O)c1ccc(Br)cc1 | inconclusive: 37.9 µM [activator, single point] | – |
| CCC(C)(C)c1ccc(O)cc1 | inconclusive: 30.9 µM [activator, single point] | – |
| C[C@H](CN1CCOCC1)C(C(=O)N1CCCC1)(c1ccccc1)c1ccccc1 | inconclusive: 61.3 µM [activator, single point] | – |
| O=C1CN=C(c2ccccc2Cl)c2cc(Br)ccc2N1 | inconclusive: 13.5 µM [activator, partial curve, poor fit] | – |
| CC1=CC2/C=C(\C)CCC(O)C(O)/C=C/C(=O)OC23C(=O)NC(CC(C)C)C3C1C (centres undefined) | – | inactive: 0.763% |
| CCCN(CCC)C(=O)Cc1c(-c2ccc(Cl)cc2)nc2ccc(Cl)cn12 | – | inactive: 29.3% |
| N[C@@H](Cn1oc(=O)[nH]c1=O)C(=O)O | inconclusive: 0.0239 µM [activator, full curve] | – |
| C[C@@H]1[C@@H](C(=O)C[C@H]2O[C@@H]3O[C@]4(C)CC[C@@H]5[C@H](C)CC[C@@H]([C@H]2C)[C@@]35OO4)O[C@@H]2O[C@]3(C)CC[C@H]4[C@H](C)CC[C@@H]1[C@@]24OO3 | inconclusive: 2.17 µM [activator, full curve, poor fit] | – |
| CC[C@H](C)[C@H](NC(=O)[C@H]1CCCCN1C)C(=O)N(COC(=O)CC(C)C)[C@H](C[C@@H](OC(C)=O)c1nc(C(=O)N[C@@H](Cc2ccc(O)cc2)C[C@H](C)C(=O)O)cs1)C(C)C | – | inconclusive: 21% [activator] |
| C[C@@H]1C[C@@H]([C@H](O)CC2CC(=O)NC(=O)C2)C(=O)[C@@H](C)C1 | active: 4.37 µM and active: 968 nM | – |
| CC(=O)O[C@H]1C[C@]2(O)[C@@H]3CC[C@@H]4C[C@@H](O)CC[C@]4(C)[C@H]3CC[C@]2(C)[C@H]1c1ccc(=O)oc1 | inconclusive: 0.169 µM [activator, full curve, poor fit] | – |
| CCC(C)(O)C1(C(=O)O)COC(=O)C1 (centres undefined) | – | inactive: 6.25% |
| C[C@]12CC[C@H](O)C[C@H]1CC[C@@H]1[C@@H]2[C@H](O)C[C@]2(C)[C@@H](c3ccc(=O)oc3)CC[C@]12O | inconclusive: 0.239 µM [activator, full curve, poor fit] | – |
| Oc1cc(Cl)ccc1Oc1ccc(Cl)cc1Cl | active: 51.4 µM and inconclusive: 38.9 µM [activator, single point] | – |
| CC1=C[C@H]2O[C@@H]3[C@H](O)[C@@H](O)[C@](C)([C@@]2(CO)C[C@@H]1O)[C@]31CO1 | active: 7.57 µM | – |
| CC(C)[C@]12O[C@H]1[C@@H]1O[C@]13[C@]1(O[C@H]1C[C@H]1C4=C(CC[C@@]13C)C(=O)OC4)[C@@H]2O | active: 0.269 µM | – |
| Nc1ccc(Cl)cc1C(=O)c1ccccc1F | inconclusive: 30.9 µM [activator, single point] | – |
| Cc1nnc2n1-c1sc(CCc3ccc(CC(C)C)cc3)cc1C(c1ccccc1Cl)=NC2C (centres undefined) | inconclusive: 27.6 µM [activator, single point] | – |
| Ic1ccccc1CNC1C2CCN(CC2)C1C(c1ccccc1)c1ccccc1 (centres undefined) | inconclusive: 2.69 µM [activator, partial curve, poor fit] | – |
